Laboratory results from PubChem BioAssay AID1347430 (National Center for Advancing Translational Sciences (NCATS), 2020).
The campaign covered roughly 91,000 compounds. About 130 (0.14%) were called active. Inconclusive results, whose numbers are uncertain, are shown with a selection of clear calls. Calls come from the whole dose curve; as a rule, active = well fitted inhibition curve with a large enough effect; inconclusive = small, poorly fitted or top-dose-only effect; inactive = flat fitted curve, though single readings scatter. Potencies of inconclusive entries are doubtful fits and often do not repeat.

tested on: Uracil-DNA glycosylase; assay: Primary qHTS assay for inhibitors of Activation Induced Cytidine Deaminase (AID): UDG Counterscreen signal; conditions: FRET deamination/UDG coupled assay, UDG read, 4 h; series mostly up to 115 µM; activity change, negative = inhibition: at the top concentration; note: nearly all actives have a fitted effect of over 65% in size
% is set by controls: 0 for no effect and ±100 for the full control effect; potency is the fitted concentration of half-maximal effect; tags give direction and shape of the fitted curve.

SMILES | activity change, negative = inhibition | Potency
CCCNC(=O)c1cn(Cc2ccccc2)c2ccccc12 | inactive: -3.47% | –
Cc1cccc(-c2nn3c(=O)cc(CN4CCN(C(=O)COc5ccc(Cl)cc5)CC4)nc3s2)c1 | – | inconclusive: 89.1 µM [inhibitor, single point]
O=[N+]([O-])/C=C/c1c[nH]c2ccccc12 | inactive: 4.94% | –
Cc1ccc(Cn2cccc(C(=O)Nc3cc(C)on3)c2=O)cc1 | – | inconclusive: 89.1 µM [inhibitor, partial curve, poor fit]
CCC[N+]12CCC(CC1)C(=C(c1ccccc1)c1ccccc1)C2 | inactive: 11.4% | –
COc1cccc(NC(=O)c2cccn(Cc3ccccc3C)c2=O)c1 | – | inconclusive: 20 µM [inhibitor, full curve, poor fit]
CCCC12CN3CC(C)(CN(C1)C3c1c(C)[nH]c(=O)[nH]c1=O)C2=O (centres undefined) | inactive: -28.7% | –
CCOc1cc(CN2CCN(C(=O)COc3ccc4ccccc4c3)CC2)ccc1OC | inactive: 7.6% | –
CN(Cc1cccs1)C(=O)CCl | inactive: -3.27% | –
CN1CC[C@@]2(C)c3cc(O)ccc3N(C)C12 (some centres undefined) | inactive: -3.62% | –
Cc1cccc(Cn2cccc(C(=O)Nc3ccc(F)cc3F)c2=O)c1 | – | inconclusive: 100 µM [inhibitor, single point]
CCc1ccc2[nH]c(C)c(CCN)c2c1 | inactive: 5.57% | –
O=C(O)CCCCCCCCCCO | inactive: 7.53% | –
Cc1cccc(Cn2cccc(C(=O)Nc3nnc(C)s3)c2=O)c1 | – | inconclusive: 100 µM [inhibitor, single point]
O=C(Nc1ccc2c(c1)OCCO2)c1cccn(Cc2ccccc2)c1=O | inactive: -22.5% | –
Cc1ccccc1-c1nc(CN2C(=O)CN=C(c3ccccc3)c3ccccc32)c(C)o1 | inactive: -9.9% | –
CC(C)N1CCN(Cc2c[nH]c3ccccc23)CC1 | – | inconclusive: 89.1 µM [inhibitor, single point]
O=Cc1cccc2ccccc12 | – | inconclusive: 56.2 µM [inhibitor, partial curve, poor fit]
CC12CNCC(C)(CNC1)C2=O | – | active: 50.1 µM
COc1cc(OC)cc(C(=O)Nc2ccc(Cl)cc2C(=O)c2ccccc2Cl)c1 | – | inconclusive: 100 µM [inhibitor, single point]
COc1ccc(CNCCc2cccc(F)c2)cc1 | inactive: -2.25% | –
COc1ccc(OCC(=O)N2CCN(Cc3cc(=O)n4nc(-c5ccccc5C)sc4n3)CC2)cc1 | – | inconclusive: 70.8 µM [inhibitor, partial curve]
O=S1(=O)N(Cc2ccccc2)CCCN1Cc1cccc(Cl)c1 | – | inconclusive: 79.4 µM [inhibitor, single point]

SMILES | activity change, negative = inhibition | Potency
O=c1c2ccccc2nc(/C=C/c2cccc3ccccc23)n1-c1ccccc1Cl | – | active: 89.1 µM
Cc1cc(-n2c(/C=C/c3ccc(Br)s3)nc3ccccc3c2=O)ccc1Br | – | inconclusive: 89.1 µM [inhibitor, single point]
Cc1cc(-n2c(/C=C/c3cccs3)nc3ccccc3c2=O)ccc1Br | – | inconclusive: 100 µM [inhibitor, single point]
N#C/C(=C\c1ccccc1)C(=O)Nc1ccc(Cl)cc1C(=O)c1ccccc1 | inactive: -9.81% | –
N#CCCNCc1cccnc1 | inactive: -1.93% | –
COc1ccc2c(c1)c(C(=O)OC(C)C(=O)NC(C)(C)C)c(C)n2C1CC1 (centres undefined) | inactive: -6.01% | –
CC(=O)OC1CCC2(/C=N/O)[C@H]3CCC4(C)C(C5=CC(=O)OC5)CCC4(O)[C@@H]3CCC2(O)C1 (some centres undefined) | inactive: -5.69% | –
CN(C)CCNc1ccc([N+](=O)[O-])c2cccnc12 | inactive: -0.898% | –
Cc1ccc(CNCCc2c[nH]c3ccccc23)cc1 | – | inconclusive: 79.4 µM [inhibitor, partial curve]
Cc1cc(C)nc(SC(Cl)(Cl)Cl)n1 | inactive: -8.48% | –
COCCNC(=O)Cn1cc(C(=O)c2ccccc2)c2ccccc21 | inactive: 3.23% | –
Cc1cccc(Cn2cccc(C(=O)Nc3ccc4c(c3)OCCO4)c2=O)c1 | – | inconclusive: 79.4 µM [inhibitor, partial curve, poor fit]
Cc1ccc(-n2c(/C=C\c3ccc(F)cc3)nc3ccccc3c2=O)cc1Cl | – | active: 89.1 µM
Cc1ccc2c(c1)C(Cc1nc3ccccc3c(=O)n1-c1ccc(Br)cc1)C(=O)N2 (centres undefined) | – | inconclusive: 89.1 µM [inhibitor, partial curve, poor fit]
Cc1ccc2c(CCN)c(C)[nH]c2c1C | inactive: 7.47% | –
Cc1ccc(CN(CCc2ccccc2)Cc2ccccc2)o1 | inactive: 6.59% | –
Cc1cccc(CN2CC=C(c3noc(CCC(=O)Nc4ccc(C)c(F)c4)n3)CC2)c1 | – | inconclusive: 89.1 µM [inhibitor, partial curve, poor fit]
Ic1ccc(CN2CCNCC2)cc1 | inactive: -1.24% | –
O=C(Nc1nc2ccccc2s1)c1cccn(Cc2ccccc2)c1=O | – | inconclusive: 89.1 µM [inhibitor, single point]
CC[C@@H](CO)NC(=O)[C@@H]1C=C2c3cccc4c3c(cn4C)C[C@H]2N(C)C1 | inactive: 0.514% | –
COc1ccc(N2C(=O)NC(=O)C3(Cc4cc(C)ccc4N(C)C3)C2=O)cc1 (centres undefined) | inactive: 0.108% | –
CC(NCc1ccco1)C(O)c1ccccc1 (centres undefined) | inactive: 3.68% | –
CC(Nc1ccc([N+](=O)[O-])c2nonc12)c1ccccc1Cl (centres undefined) | – | inconclusive: 35.5 µM [inhibitor, partial curve, poor fit]

SMILES | activity change, negative = inhibition | Potency
Cc1cc(OCC(=O)N2CCN(CCc3ccncc3)CC2)cc(C)c1Cl | – | inconclusive: 100 µM [inhibitor, single point]
Cc1c(C(=O)Cn2c(C)nc3ccccc32)c2ccccc2n1C | – | inconclusive: 79.4 µM [inhibitor, single point]
Cc1ccccc1-n1c(/C=C/c2ccccc2F)nc2ccccc2c1=O | inactive: -10.6% | –
O=C(Nc1ccccc1C(F)(F)F)c1cccn(Cc2ccccc2)c1=O | – | inconclusive: 100 µM [inhibitor, single point]
Cc1cccc(-n2c(CC3C(=O)Nc4ccc(C)cc43)nc3ccccc3c2=O)c1 (centres undefined) | – | inconclusive: 89.1 µM [inhibitor, single point]
Cc1cccc(Cn2cccc(C(=O)Nc3nc4ccccc4s3)c2=O)c1 | – | inconclusive: 89.1 µM [inhibitor, single point]
Cc1cccc(-n2c(/C=C/c3cccc4ccccc34)nc3ccccc3c2=O)c1 | – | inconclusive: 79.4 µM [inhibitor, partial curve, poor fit]
Cc1c(C(c2ccc(O)cc2)c2c(O)c3ccccc3oc2=O)c(=O)n(-c2ccccc2)n1C (centres undefined) | inactive: 4.26% | –
Cc1ccc(-n2c(/C=C/c3cccc(C(F)(F)F)c3)nc3ccccc3c2=O)cc1 | – | inconclusive: 70.8 µM [inhibitor, partial curve, poor fit]
CC(NCCc1ccccc1)c1ccccc1 (centres undefined) | inactive: -5.17% | –
Cc1[nH]nc2c1C(c1ccc3c(c1)OCCO3)SCC(=O)N2 (centres undefined) | inactive: -1.53% | –
CCC1CCC(NC2CCC(CC)CC2)CC1 (centres undefined) | inactive: -12.5% | –
COc1ccccc1-n1c(/C=C/c2ccccc2)nc2ccccc2c1=O | inactive: 0% | –
CC1CC(=O)C2CCCCC2N1 (centres undefined) | inactive: -0.031% | –
CCCCc1nc2ccccc2c(=O)n1-c1cccc(OC)c1 | – | inconclusive: 89.1 µM [inhibitor, single point]
CC(C)(C)CC(C)(C)NCCc1ccccc1 | inactive: -4.61% | –
N#Cc1cc2c(nc1SCC(=O)Nc1cccc(F)c1)C1CCN2CC1 | inactive: 6.27% | –
COC1C(O)C(C)OC(OC2CCC3(C)C(CC[C@@H]4[C@@H]3CCC3(C)C(C5=CC(=O)OC5)C(O)CC43O)C2)C1O (some centres undefined) | inactive: 6.08% | –
O=C(Nc1ccc2c(c1)OCCO2)c1cccn(Cc2cccc([N+](=O)[O-])c2)c1=O | – | inconclusive: 89.1 µM [inhibitor, partial curve]
O=C(COc1ccccc1[N+](=O)[O-])N1CCN(CCc2ccncc2)CC1 | inactive: 0.279% [at 57.5 µM] | –
C=CCNC(=O)c1c(N)n(Cc2ccccc2)c2nc3ccccc3nc12 | – | inconclusive: 17.8 µM [inhibitor, full curve, poor fit]
N#Cc1ccccc1NC(=O)c1cccn(Cc2ccccc2)c1=O | – | inconclusive: 100 µM [inhibitor, single point]
CCCCc1ccc2[nH]c(C)c(CCN)c2c1 | inactive: 5.57% | –
